The values below come from ChEMBL document CHEMBL4888484, “Replenishing the malaria drug discovery pipeline: Screening and hit evaluation of the MMV Hit Generation Library 1 (HGL1) against asexual blood stage Plasmodium falciparum ,using a nano luciferase reporter read-out” (2022).

Hit rate of the full screen: of about 150,000 compounds, about 540 (0.36%) showed an effect of 50% or more. The list shows a part of the results.

The test system of the assay is Plasmodium falciparum. As to the kind of experiment: Primary screen in NF54 nanoGlo assay, in single point, at 2uM, 72h; a lower Z score goes with more inhibition. In kind it is functional, Erythrocyte. To be noted: timepoint 72 hour.
Take `COc1cccc(CN2CCCn3cccc3[C@H]2c2cc(C)ccc2C)c1`: the % Inhibition (commonly the change of the read-out against control, counted positive when it falls) is on record as -1% and the Z score was 0.13.
As to `Cc1ccc2c(=O)c(C(=O)N3CCCC3)cn(CC(=O)NCc3ccc(F)cc3)c2n1`, the “% Inhibition” value is -10% and the Z score is 1.4.
The corresponding values for `CC[C@H]1CC[C@H](NC(=O)N(C)Cc2nnc(C)s2)CC1` are -13% and 2.42.
For `C[C@H](Oc1ccccc1)C(=O)N(C)c1nc2ccccc2n1C` the same measures were 0% and -0.03.
For `NC(=O)N1CCC(NC(=O)[C@@H](O)Cc2ccccc2)C1` (stereo partly drawn) the same measures were -5% and 0.67.
In the case of `Cn1ccc([C@@H]2CCCCCN2S(=O)(=O)N2CCCC2)n1`, the “% Inhibition” value is -8% and the Z score is given as 1.12.
Take `CC1CN(C(=O)NCC2CCN(c3ccccc3F)C2)CC[S+]([O-])C1` (stereo not drawn): the “% Inhibition” value is 5% and the Z score is -0.8.
As to `CC1CC(C)(C)CC(CO)(NCC(=O)NCc2ccco2)C1` (stereo not drawn), the “% Inhibition” value is recorded as -8% and the Z score was 0.85.
For the compound `Cc1ccc(-c2csc(-n3nc(NS(=O)(=O)c4ccc(C)cc4)nc3N)n2)cc1`, the “% Inhibition” value was 29% and the Z score is given as -3.28.
For `CN1c2ncccc2CN(Cc2ccc(Cl)cc2)CC[C@H]1CO` the same measures were -5% and 0.82.
The corresponding values for `COc1ccc(-c2cc(C(=O)N3CCC(NC(=O)c4ccc5c(c4)OCO5)CC3)[nH]n2)cc1` are -21% and 2.41.
The corresponding values for `COc1ccccc1CN1C(=O)Cn2cccc2[C@@H]1C(=O)NC1CCCCC1` are 20% and -2.68.
`COc1cc(NC(=O)c2sc(C)nc2C)c(OC)cc1NC(=O)c1ccccc1`: the “% Inhibition” value is reported as -4% and the Z score was 0.73.
For `COCCN(Cc1cccs1)S(=O)(=O)c1cc2c(cc1C)NC(=O)CO2` the same measures were -7% and 0.9.
Take `CCc1nc(C)sc1-c1nc(C)n[nH]1`: the “% Inhibition” value is reported as 0% and the Z score is -0.03.
For `c1ccc2c(CCNc3ncncn3)c[nH]c2c1` the same measures were -20% and 1.95.
As for `CCOC(=O)c1c(C)c(C(=O)Nc2ccc(Oc3ccccc3)cc2)c(C)n1CC`, the “% Inhibition” value is 3% and the Z score is -0.42.
In the case of `COCCn1ccc(C(=O)N2CCO[C@H](c3cccc(F)c3)[C@H]2C)n1`, the “% Inhibition” value was found to be 5% and the Z score is -1.15.
For `CN1CCn2c1nc(N1CCOCC1)nc2=O` the same measures were -11% and 1.24.
For `O=C1C[C@H](c2nc(-c3ccccc3)no2)C2(CCCC2)O1` the same measures were -8% and 1.59.
For `CCN(CC)C(=O)Cn1cc(C(=O)N(CCOC)C(C)C)nn1` the same measures were 0% and 0.01.
With `CCN(CC)c1onc(-c2ccccc2)c1CN(CCC(C)C)C(=O)COC`, the “% Inhibition” value is -6% and the Z score was determined as 0.6.
With `NS(=O)(=O)[C@H]1CCN(Cc2ccccc2)C1`, the “% Inhibition” value is reported as -18% and the Z score turned out to be 1.61.
As to `c1csc(N[C@H]2CCO[C@@H]2c2cnn(CC3CC3)c2)n1`, the “% Inhibition” value was -1% and the Z score was 0.12.
